# The list shows a part of the results.
# B1: CaSRK1 (Capsicum annuum) (protein)
# chain: MALCKIFPFAFILLSCSCYLISGQRFDYPTANLSTTWINSVSAPHSIDYTDGSRIRAILLRGTFGPRYACGFYCNGNCESYLFAIFIVQTNSASQITSPAIGFPQVVWSANRNNPVKINSTLQLTAEGDLVLRDADGTLAWSTNTAGKSVAGLSLTDEGNLALFDSKNATVWQSFDHPTDALVPGQKLVPGMKLTASVSRTNWTAGGLFALSAIDNGLVAFVESNPPQKYFEASVGGSNTSGGSNYVKYLNGSLTLFTHSADTTELILISITPASSAQYMKLESNGHLKVYEWTSRGWREVDDLLTGFRGECNYPTVCGRYGICTMGQCSCPTSSSSRTYFRPIDVRRPSLGCSEVTKLTCQNTKKHSPLEVEDVDYFAFKAGISDTDLNTCKRACLEKCSCKAAFFRSGLNSSRTRGDCYLPTEIFSIMNNEKDRTRYDSVAFIKVQV
# Tests used:
# Assay in all cases: glycan array binding signal (z-score within array); higher = stronger binding
# Conditions in all cases: glycan notation: IUPAC condensed, linker removed
# [1] = target: Gal(b1-4)GlcNAc(b1-3)Gal(b1-4)GlcNAc(b1-2)[Gal(b1-4)GlcNAc(b1-3)Gal(b1-4)GlcNAc(b1-6)]Man(a1-6)[Gal(b1-4)GlcNAc(b1-3)Gal(b1-4)GlcNAc(b1-2)Man(a1-3)]Man(b1-4)GlcNAc(b1-4)[Fuc(a1-6)]GlcNAc
# Summary of the method: (§1)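 Columns mapping to the same glycan were averaged after glycan names were converted to IUPAC-condensed notation. The data come from 3228 arrays in the Consortium for Functional Glycomics database, limited to those with an available protein sequence. Binding is reported as a within-array Z-score averaged across arrays of one protein sequence and across linkers.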
# [2] = target: Gal(b1-4)GlcNAc(b1-3)Gal(b1-4)GlcNAc(b1-3)Gal(b1-4)GlcNAc
# Summary of the method: as §1
# [3] = target: Gal(b1-4)GlcNAc(b1-3)Gal(b1-4)GlcNAc(b1-3)Gal(b1-4)GlcNAc(b1-2)Man(a1-3)[Gal(b1-4)GlcNAc(b1-3)Gal(b1-4)GlcNAc(b1-3)Gal(b1-4)GlcNAc(b1-2)Man(a1-6)]Man(b1-4)GlcNAc(b1-4)GlcNAc
# Summary of the method: as §1
# [4] = target: Gal(b1-4)GlcNAc(b1-3)Gal(b1-4)GlcNAc(b1-3)Gal(b1-4)GlcNAc(b1-2)Man(a1-3)[Gal(b1-4)GlcNAc(b1-3)Gal(b1-4)GlcNAc(b1-3)Gal(b1-4)GlcNAc(b1-2)Man(a1-6)]Man(b1-4)GlcNAc(b1-4)[Fuc(a1-6)]GlcNAc
# Summary of the method: as §1
# [5] = target: Gal(b1-4)GlcNAc(b1-3)Gal(b1-4)GlcNAc(b1-3)Gal(b1-4)GlcNAc(b1-2)[Gal(b1-4)GlcNAc(b1-3)Gal(b1-4)GlcNAc(b1-3)Gal(b1-4)GlcNAc(b1-6)]Man(a1-6)[Gal(b1-4)GlcNAc(b1-3)Gal(b1-4)GlcNAc(b1-3)Gal(b1-4)GlcNAc(b1-2)Man(a1-3)]Man(b1-4)GlcNAc(b1-4)[Fuc(a1-6)]GlcNAc
# Summary of the method: as §1
# [6] = target: Gal(b1-4)GlcNAc(b1-3)Gal(b1-4)GlcNAc(b1-3)Gal(b1-4)GlcNAc(b1-3)Gal(b1-4)GlcNAc(b1-2)Man(a1-3)[Gal(b1-4)GlcNAc(b1-3)Gal(b1-4)GlcNAc(b1-3)Gal(b1-4)GlcNAc(b1-3)Gal(b1-4)GlcNAc(b1-2)Man(a1-6)]Man(b1-4)GlcNAc(b1-4)GlcNAc
# Summary of the method: as §1
# [7] = target: Gal(b1-4)GlcNAc(b1-3)Gal(b1-4)GlcNAc(b1-3)Gal(b1-4)GlcNAc(b1-3)Gal(b1-4)GlcNAc(b1-2)Man(a1-3)[Gal(b1-4)GlcNAc(b1-3)Gal(b1-4)GlcNAc(b1-3)Gal(b1-4)GlcNAc(b1-3)Gal(b1-4)GlcNAc(b1-2)Man(a1-6)]Man(b1-4)GlcNAc(b1-4)[Fuc(a1-6)]GlcNAc
# Summary of the method: as §1
# [8] = target: Gal(b1-4)GlcNAc(b1-3)Gal(b1-4)GlcNAc(b1-3)Gal(b1-4)GlcNAc(b1-3)Gal(b1-4)GlcNAc(b1-2)[Gal(b1-4)GlcNAc(b1-3)Gal(b1-4)GlcNAc(b1-3)Gal(b1-4)GlcNAc(b1-3)Gal(b1-4)GlcNAc(b1-6)]Man(a1-6)[Gal(b1-4)GlcNAc(b1-3)Gal(b1-4)GlcNAc(b1-3)Gal(b1-4)GlcNAc(b1-3)Gal(b1-4)GlcNAc(b1-2)Man(a1-3)]Man(b1-4)GlcNAc(b1-4)[Fuc(a1-6)]GlcNAc
# Summary of the method: as §1
# [9] = target: Gal(b1-4)GlcNAc(b1-3)Gal(b1-4)GlcNAc(b1-3)Gal(b1-4)GlcNAc(b1-3)Gal(b1-4)GlcNAc(b1-3)Gal(b1-4)GlcNAc(b1-2)Man(a1-3)[Gal(b1-4)GlcNAc(b1-3)Gal(b1-4)GlcNAc(b1-3)Gal(b1-4)GlcNAc(b1-3)Gal(b1-4)GlcNAc(b1-3)Gal(b1-4)GlcNAc(b1-2)Man(a1-6)]Man(b1-4)GlcNAc(b1-4)GlcNAc
# Summary of the method: as §1
# [10] = target: Gal(b1-4)GlcNAc(b1-3)Gal(b1-4)GlcNAc(b1-3)Gal(b1-4)GlcNAc(b1-3)Gal(b1-4)GlcNAc(b1-3)Gal(b1-4)GlcNAc(b1-2)Man(a1-3)[Gal(b1-4)GlcNAc(b1-3)Gal(b1-4)GlcNAc(b1-3)Gal(b1-4)GlcNAc(b1-3)Gal(b1-4)GlcNAc(b1-3)Gal(b1-4)GlcNAc(b1-2)Man(a1-6)]Man(b1-4)GlcNAc(b1-4)[Fuc(a1-6)]GlcNAc
# Summary of the method: as §1
# [11] = target: Gal(b1-4)GlcNAc(b1-3)Gal(b1-4)GlcNAc(b1-3)Gal(b1-4)GlcNAc(b1-3)Gal(b1-4)GlcNAc(b1-3)Gal(b1-4)GlcNAc(b1-2)[Gal(b1-4)GlcNAc(b1-3)Gal(b1-4)GlcNAc(b1-3)Gal(b1-4)GlcNAc(b1-3)Gal(b1-4)GlcNAc(b1-3)Gal(b1-4)GlcNAc(b1-6)]Man(a1-6)[Gal(b1-4)GlcNAc(b1-3)Gal(b1-4)GlcNAc(b1-3)Gal(b1-4)GlcNAc(b1-3)Gal(b1-4)GlcNAc(b1-3)Gal(b1-4)GlcNAc(b1-2)Man(a1-3)]Man(b1-4)GlcNAc(b1-4)[Fuc(a1-6)]GlcNAc
# Summary of the method: as §1
# [12] = target: Gal(b1-4)GlcNAc(b1-3)Gal(b1-4)GlcNAc(b1-3)Gal(b1-4)GlcNAc(b1-3)Gal(b1-4)GlcNAc(b1-3)Gal(b1-4)GlcNAc(b1-3)Gal(b1-4)GlcNAc(b1-2)Man(a1-3)[Gal(b1-4)GlcNAc(b1-3)Gal(b1-4)GlcNAc(b1-3)Gal(b1-4)GlcNAc(b1-3)Gal(b1-4)GlcNAc(b1-3)Gal(b1-4)GlcNAc(b1-3)Gal(b1-4)GlcNAc(b1-2)Man(a1-6)]Man(b1-4)GlcNAc(b1-4)GlcNAc
# Summary of the method: as §1
# [13] = target: Gal(b1-4)GlcNAc(b1-3)Gal(b1-4)GlcNAc(b1-3)GalNAc
# Summary of the method: as §1
# [14] = target: Gal(b1-4)GlcNAc(b1-3)Gal(b1-4)GlcNAc(b1-3)[Gal(b1-4)GlcNAc(b1-3)Gal(b1-4)GlcNAc(b1-6)]GalNAc
# Summary of the method: as §1
# [15] = target: Gal(b1-4)GlcNAc(b1-3)Gal(b1-4)GlcNAc(b1-6)[Gal(b1-3)]GalNAc
# Summary of the method: as §1
# [16] = target: Gal(b1-4)GlcNAc(b1-3)Gal(b1-4)[Fuc(a1-3)]GlcNAc(b1-3)Gal(b1-4)[Fuc(a1-3)]GlcNAc
# Summary of the method: as §1
# [17] = target: Gal(b1-4)GlcNAc(b1-3)GalNAc
# Summary of the method: as §1
# [18] = target: Gal(b1-4)GlcNAc(b1-3)[Fuc(a1-3)GlcNAc(b1-6)]Gal(b1-4)Glc
# Summary of the method: as §1
# [19] = target: Gal(b1-4)GlcNAc(b1-3)[Gal(b1-4)GlcNAc(b1-6)]Gal(b1-4)GlcNAc
# Summary of the method: as §1
# [20] = target: Gal(b1-4)GlcNAc(b1-3)[GlcNAc(b1-6)]Gal(b1-4)GlcNAc
# Summary of the method: as §1
# [21] = target: Gal(b1-4)GlcNAc(b1-6)Gal(b1-4)GlcNAc
# Summary of the method: as §1
# [22] = target: Gal(b1-4)GlcNAc(b1-6)GalNAc
# Summary of the method: as §1
# [23] = target: Gal(b1-4)GlcNAc(b1-6)[Gal(b1-3)]GalNAc
# Summary of the method: as §1
# [24] = target: Gal(b1-4)GlcNAc(b1-6)[Gal(b1-4)GlcNAc(b1-3)]GalNAc
# Summary of the method: as §1
# Gal(b1-4)GlcNAc6P = target: Gal(b1-4)GlcNAc6P
# Summary of the method: as §1
# Gal(b1-6)Gal = target: Gal(b1-6)Gal
# Summary of the method: as §1
# Gal3S(b1-3)GalNAc = target: Gal3S(b1-3)GalNAc
# Summary of the method: as §1
# Gal3S(b1-3)GlcNAc = target: Gal3S(b1-3)GlcNAc
# Summary of the method: as §1
# [25] = target: Gal3S(b1-3)[Fuc(a1-4)]GlcNAc
# Summary of the method: as §1
# Gal3S(b1-4)Glc = target: Gal3S(b1-4)Glc
# Summary of the method: as §1
# Gal3S(b1-4)Glc6S = target: Gal3S(b1-4)Glc6S
# Summary of the method: as §1
# Gal3S(b1-4)GlcNAc = target: Gal3S(b1-4)GlcNAc
# Summary of the method: as §1
# [26] = target: Gal3S(b1-4)[Fuc(a1-3)]Glc6S
# Summary of the method: as §1
# [27] = target: Gal3S(b1-4)[Fuc(a1-3)]GlcNAc
# Summary of the method: as §1
# [28] = target: Gal3S(b1-4)[Fuc(a1-3)]GlcNAc6S
# Summary of the method: as §1
# Gal3S4S(b1-4)GlcNAc = target: Gal3S4S(b1-4)GlcNAc
# Summary of the method: as §1
# Gal3S6S(b1-4)GlcNAc = target: Gal3S6S(b1-4)GlcNAc
# Summary of the method: as §1
binder,measurement,setting,value
B1,glycan array binding signal (z-score),[1],0.3
same,glycan array binding signal (z-score),[2],-0.547
same,glycan array binding signal (z-score),[3],0.262
same,glycan array binding signal (z-score),[4],0.595
same,glycan array binding signal (z-score),[5],0.148
same,glycan array binding signal (z-score),[6],-0.535
same,glycan array binding signal (z-score),[7],0.677
same,glycan array binding signal (z-score),[8],-0.328
same,glycan array binding signal (z-score),[9],-0.244
same,glycan array binding signal (z-score),[10],-0.453
same,glycan array binding signal (z-score),[11],-0.339
same,glycan array binding signal (z-score),[12],-0.568
same,glycan array binding signal (z-score),[13],2.85
same,glycan array binding signal (z-score),[14],0.61
same,glycan array binding signal (z-score),[15],0.804
same,glycan array binding signal (z-score),[16],-0.335
same,glycan array binding signal (z-score),[17],-0.343
same,glycan array binding signal (z-score),[18],0.216
same,glycan array binding signal (z-score),[19],-0.549
same,glycan array binding signal (z-score),[20],-0.104
same,glycan array binding signal (z-score),[21],0.04
same,glycan array binding signal (z-score),[22],-0.368
same,glycan array binding signal (z-score),[23],-0.309
same,glycan array binding signal (z-score),[24],-0.405
same,glycan array binding signal (z-score),Gal(b1-4)GlcNAc6P,0.124
same,glycan array binding signal (z-score),Gal(b1-6)Gal,-0.315
same,glycan array binding signal (z-score),Gal3S(b1-3)GalNAc,0.831
same,glycan array binding signal (z-score),Gal3S(b1-3)GlcNAc,0.257
same,glycan array binding signal (z-score),[25],-0.07
same,glycan array binding signal (z-score),Gal3S(b1-4)Glc,1.91
same,glycan array binding signal (z-score),Gal3S(b1-4)Glc6S,1.94
same,glycan array binding signal (z-score),Gal3S(b1-4)GlcNAc,0.461
same,glycan array binding signal (z-score),[26],-0.371
same,glycan array binding signal (z-score),[27],-0.079
same,glycan array binding signal (z-score),[28],1.97
same,glycan array binding signal (z-score),Gal3S4S(b1-4)GlcNAc,0.168
same,glycan array binding signal (z-score),Gal3S6S(b1-4)GlcNAc,-0.063
